Read-outs that look alike come from different tables or passages of the source.
System: B. fragilis 23745
Assay: In vivo anti-anaerobe activity, mouse hepatic necrosis
Conditions: Bacteroides fragilis, 23745, in Mus musculus, po, 48 h, read-out: Dose giving 1 log reduction, p.o., immediately after infection and twice daily for 2 days
[1] = 1 log (90%) reduction of CFU/ml liver homogenate, from dose response curves
[2] = same dose in molar units, in parentheses

Compound	ED (1 log reduction) [1] [mg/kg]	ED (1 log reduction) [2] [µmol/kg]
CC1(C)CN=C2C(c3ccccc3)=[N+]([O-])c3cc(C(F)(F)F)ccc3N2C1 [Example 1, 2,3-Dihydro-2,2-dimethyl-5-phenyl-8-trifluoromethyl-1H-pyrimido[1,2-a]quinoxaline 6-oxide]	2.05	5.5
CC1(C)CN=C2C(c3ccccc3)=[N+]([O-])c3ccc(F)cc3N2C1 [Example 2, 2,3-Dihydro-2,2-dimethyl-9-fluoro-5-phenyl-1H-pyrimido [1,2-a]quinoxaline 6-oxide]	2.7	8.4
Cc1ccc(C2=[N+]([O-])c3cc(C(F)(F)F)ccc3N3CC(C)(C)CN=C23)cc1 [Example 3, 2,3-Dihydro-2,2-dimethyl-5-(4-methylphenyl)-8-trifluoromethyl-1H-pyrimid [1,2-a]quinoxaline 6-oxide]	22.6	58
CCC1(C)CN=C2C(c3ccccc3)=[N+]([O-])c3cc(C(F)(F)F)ccc3N2C1 (stereo not drawn) [Example 4, 2,3-Dihydro-2-ethyl-2-methyl-5-phenyl-8-trifluoromethyl-1H-pyrimido [1,2-a]quinoxaline 6-oxide]	4.45	11.5
CC1(C)CN=C2C(c3ccccc3)=[N+]([O-])c3cccc(F)c3N2C1 [Example 5, 2,3-Dihydro-2,2-dimethyl-10-fluoeo-5-phenyl-1H-pyrimido [1,2-a]quinoxaline 6-oxide]	3.2	9.9
Cc1ncc([N+](=O)[O-])n1CCO [Metronidazole, reference compound]	1.9	11

From patent publication US4758565A, “Substituted pyrimidoquinoxalines useful as anti-anaerobic agents” (G. D. Searle & Co., priority 1986, dated 1988)
